Reference: PMC4336329 (PLoS ONE, 2015)
Out of some 310,000 compounds screened, about 2,200 (0.71%) showed an effect of 50% or more. Effects have a minus sign here. The list shows a part of the results.

What follows are molecules tested against human ether-à-go-go-related gene (hERG) potassium channel (human, UniProt Q12809) (assay: primary screen, population patch clamp on CHO cells stably expressing hERG).
Chain of human ether-à-go-go-related gene (hERG) potassium channel (Q12809 whole entry, looked up): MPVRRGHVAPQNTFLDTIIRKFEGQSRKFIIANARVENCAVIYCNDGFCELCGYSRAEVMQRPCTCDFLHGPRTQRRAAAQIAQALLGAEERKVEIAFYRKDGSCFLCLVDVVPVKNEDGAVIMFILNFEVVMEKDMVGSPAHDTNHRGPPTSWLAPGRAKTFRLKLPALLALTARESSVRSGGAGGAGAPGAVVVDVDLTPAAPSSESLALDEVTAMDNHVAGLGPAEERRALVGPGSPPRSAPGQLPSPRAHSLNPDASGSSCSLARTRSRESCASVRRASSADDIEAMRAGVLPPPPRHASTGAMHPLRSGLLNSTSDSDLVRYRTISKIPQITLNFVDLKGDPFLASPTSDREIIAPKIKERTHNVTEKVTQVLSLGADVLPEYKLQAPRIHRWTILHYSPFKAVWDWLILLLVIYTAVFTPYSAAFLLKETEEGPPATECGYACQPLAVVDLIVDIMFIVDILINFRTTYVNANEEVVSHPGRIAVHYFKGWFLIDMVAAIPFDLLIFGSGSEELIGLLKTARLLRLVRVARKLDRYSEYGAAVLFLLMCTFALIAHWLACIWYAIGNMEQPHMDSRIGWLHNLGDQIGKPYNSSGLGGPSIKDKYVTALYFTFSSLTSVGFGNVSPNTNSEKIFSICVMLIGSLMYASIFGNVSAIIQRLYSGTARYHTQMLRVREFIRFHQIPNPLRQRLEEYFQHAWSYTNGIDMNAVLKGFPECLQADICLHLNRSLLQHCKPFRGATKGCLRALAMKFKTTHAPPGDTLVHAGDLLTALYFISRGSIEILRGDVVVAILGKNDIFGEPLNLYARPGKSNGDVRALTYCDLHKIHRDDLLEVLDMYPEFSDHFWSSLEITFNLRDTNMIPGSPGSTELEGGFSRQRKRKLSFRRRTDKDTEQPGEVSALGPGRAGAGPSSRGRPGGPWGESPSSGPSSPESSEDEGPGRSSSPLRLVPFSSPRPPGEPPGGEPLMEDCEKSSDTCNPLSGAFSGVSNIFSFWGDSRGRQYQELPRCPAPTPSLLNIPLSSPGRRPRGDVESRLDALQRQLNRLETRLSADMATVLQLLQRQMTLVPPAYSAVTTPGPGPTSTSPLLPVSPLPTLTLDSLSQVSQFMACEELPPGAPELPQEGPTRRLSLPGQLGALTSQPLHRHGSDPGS

SMILES | hERG current change (%, negative = inhibition) at 1uM [%]
CCN1CCc2c(OCC(=O)N3CCCCC3)cccc2C1=O | 6.82
COc1ccc(C(=O)Nc2ccc(NC(=O)c3ccco3)cc2)cc1 | 16.5
CCOC(=O)C1=C(c2ccccc2)NC(=O)NC1c1cc(Cl)c(O)c(OC)c1 (centres unmarked) | 8.1
COC(=O)c1sc(NC(=O)COc2ccc(OC)cc2)nc1C | 12.5
COc1ccc(CC(=O)NCc2ccco2)cc1OC | 12.7
COc1cc(-c2c(-c3ccsc3)sc3ccccc23)cc(OC)c1OC | 15.5
CC1CCN(C(=O)c2ccccc2SCC(=O)NCC2CCCCC2)CC1 | -5.24
O=C(COc1ccc(Cl)cc1Br)Nc1cccc(S(=O)(=O)N2CCCC2)c1 | 10.3
CN1CCN(/N=C/c2cccc(Cl)c2Cl)CC1.Cl | 11.9
Cc1cc(C)c2nc(C)cc(N/N=C/c3ccc(O)cc3)c2c1 | -6.55
c1ccc(NC2=Nc3ccccc3CC2)cc1 | 6.29
COc1cc2c(cc1OC)C(c1ccc([N+](=O)[O-])cc1)NC(=O)C2 (centres unmarked) | 6.17
Cc1nc(-c2ccc(S(=O)(=O)N3CCCN(CCc4ccccc4)CC3)s2)cs1 | 10.6
COc1cccc(-n2c(O)c(C=Nc3c(C)n(C)n(-c4ccccc4)c3=O)c(=O)[nH]c2=O)c1 | 21.1
CC(OC(=O)c1ccc(-n2cnnn2)cc1)C(=O)Nc1ccc(F)c(F)c1F (centres unmarked) | 9.74
O=C(C1CCN(S(=O)(=O)N2CCC3(CC2)OCCO3)CC1)N1CCC(Cc2ccccc2)CC1 | -0.692
CCOC(=O)C1CCN(C(=O)c2[nH]c3ccc(OC)cc3c2C)CC1 | 12.3
O=S(=O)(c1ccccc1F)N1CCC(Oc2ccc(-n3cnnn3)cc2)CC1 | -23.4
O=C(Oc1ccc(-c2ccccc2)cc1)N1CCOCC1 | 12
COc1ccc(OC)c(CCNC(=O)CS(=O)(=O)Cc2nc(-c3ccccc3C)oc2C)c1 | 3.09
O=C(CC1C(=O)NCCN1Cc1ccc(-c2ccccc2)cc1)NCCOc1cccnc1 (centres unmarked) | 9.6
CN1CCN(C(=S)Nc2cccc(S(=O)(=O)N(C)C)c2)CC1 | 17.8
CN(C)C(=O)N1CCC(C(=O)NCc2ccccc2)CC1 | 13.5

SMILES | hERG current change (%, negative = inhibition) at 1uM [%]
COc1ccc(-n2ccnc(SCC(=O)NC3CCCC3)c2=O)cc1OC | 13.6
Cc1ccccc1C(=O)NC(=S)Nc1ccccc1N1CCCC1 | 10.6
Cc1occc1-c1nnc(SCC(=O)Nc2nc3ccccc3s2)o1 | 9.64
CCn1cnc2c(NCCc3cccnc3)nc(C#N)nc21 | 26.8
COC(C(=O)Nc1ccnn1C1CCN(Cc2cccc(C)n2)CC1)c1ccccc1 (centres unmarked) | 16.4
O=C(CSc1nccn1-c1ccccc1)N1CCc2ccccc21 | -4.29
COc1ccc(-c2cc(=O)oc3cc(OC(C)C(=O)NC(Cc4c[nH]c5ccc(O)cc45)C(=O)O)ccc23)cc1 (centres unmarked) | -0.486
O=C(NCCCN1CCCC1=O)C1CCN(S(=O)(=O)c2ccc(Cl)cc2)CC1 | 11.5
Cc1ccc(NC(=O)C(=O)NCCN2CCN(S(C)(=O)=O)CC2)cc1C | 11.5
O=C(Nc1ccc(CN2CCCCC2)cc1)c1cccc(F)c1 | -6.1
CCc1ccc[n+](-c2nc3ccccc3nc2C(=C=[N-])C#N)c1 | 10.3
O=C(NCCNc1ccnc2cc(Cl)ccc12)c1ccccc1F | -33.5
CC(=O)c1ccc(NC(=O)CSc2ccc(-c3ccco3)nn2)cc1 | 6.41
COc1ccc(C2CC(=O)C(C=NCCO)=C(O)C2)cc1 (centres unmarked) | 8.34
O=C(O)CCNC1CCCCC1 | 14.2
CCn1c(=S)[nH]c2cc(Cl)ccc21 | 13.9
O=C(O)CC(Cc1ccc(Cl)cc1)C(=O)Nc1ccc([N+](=O)[O-])cc1 (centres unmarked) | 11.6
Cc1ccccc1C(=O)N1CCN(c2ccc(NC(=O)c3cccs3)cc2)CC1 | 9.09
Cc1cc(N2CCN(c3ccccc3)CC2)nc(N2CCOCC2)n1 | -16.6
Cc1ccc(-c2cc(-c3ccc(F)cc3)nc(N)c2C#N)o1 | 7.43
CCc1ccc(CN/C=C/C(=O)c2ccc(Br)cc2)cc1 | 6.84
CCCNc1c(NS(=O)(=O)c2ccc(C(C)(C)C)cc2)c(=O)oc2ccccc12 | 9.75
Cc1cccc(OCC2CCCN(Cc3nc(C4CC4)no3)C2)c1 (centres unmarked) | 7.74

SMILES | hERG current change (%, negative = inhibition) at 1uM [%]
OC(CNCCc1ccc(Cl)cc1)COCc1ccco1 (centres unmarked) | -6.41
COc1ccc(C(=O)OCC(=O)N2CCCC2=O)c(OC)c1 | 13
COC(=O)c1cc(S(=O)(=O)N2CCCC(C)C2)c[nH]1 (centres unmarked) | 14.1
CS(=O)(=O)N(CC(=O)Nc1ccc(Cl)c(Cl)c1)C1CCCCC1 | -13.8
COc1ccc(CCNC(=O)CSc2nnc(-c3cccc(F)c3)o2)cc1OC | 23.2
CCOC(=O)c1cnc(SCC(=O)N2CCC(C(N)=O)CC2)nc1N | 13.7
Cc1ccnc(NS(=O)(=O)c2cnc(Cl)c(Br)c2)c1 | 12
O=C(CSc1ncn[nH]1)NC1CCCc2ccccc21 (centres unmarked) | 5.87
O=C(Nc1cccnc1)c1ccc(COc2cc(Cl)ccc2Cl)o1 | 13.7
Cc1ccc(N2CC(C(=O)N3CCC(c4nc5ccccc5[nH]4)CC3)CC2=O)cc1C (centres unmarked) | 4.61
COc1cc(Cl)c(C)cc1NC(=O)COC(=O)C(NS(=O)(=O)c1ccc(Cl)cc1)C(C)O (centres unmarked) | 12.8
COc1ccc(-c2cc(C(F)F)n3ncc(C(=O)NCC4CCCO4)c3n2)cc1 (centres unmarked) | 8.93
CNCCOCC(O)CSc1ccccc1 (centres unmarked) | 11.1
CCN1CCN(c2ccc(NC(=O)CCc3c(C)nc4c(-c5ccccc5)c(C)nn4c3C)cc2)CC1 | 4.52
O=c1c2nnn(-c3ccccc3)c2ncn1C/C=C/c1ccccc1 | 7.51
CCC(=O)Nc1c2c(nn1-c1ccc(F)cc1)CS(=O)C2 (centres unmarked) | 1.88
Cc1cc(C(=O)NNC(=S)NC(C)c2ccccc2)cs1 (centres unmarked) | 0.596
CC1(C)CC(=O)C=C(NCCCNC2CCCCC2)C1 | 13.2
COc1ccc(C2=NN(C(=O)CCC(=O)O)C(c3ccc([N+](=O)[O-])cc3)C2)cc1 (centres unmarked) | 8.77
O=C(NCCSc1c[nH]c2ccccc12)c1ccco1 | 2.21
CC(=O)c1c(C)[nH]c(C(=O)Nc2cccc(S(=O)(=O)N3CCCCC3)c2)c1C | 8.27
O=c1[nH]c(N2CCOCC2)nc2ncn(Cc3ccccc3)c12 | 7.57
CCOc1ccc(/C=N/NC(=O)c2ccc(CSc3nc4ccccc4[nH]3)cc2)cc1 | 14.3

SMILES | hERG current change (%, negative = inhibition) at 1uM [%]
COc1ccccc1CNC(=O)C1CCN(C(=O)[C@@H]2Cc3ccccc3CN2)CC1 | 6.3
O=C(O)c1cc(S(=O)(=O)N2CCOCC2)ccc1N1CCCCC1 | 9.26
CCOc1ccc(NC(=O)CN2CCN(Cc3c(F)cccc3F)CC2)cc1 | -50.7
CCOC(=O)c1c(C)[nH]c(C(=O)Cn2nnc(-c3ccc(Cl)cc3)n2)c1C | -0.516
Cc1cc(C)cc(NC(=S)N(CCCN2CCN(C)CC2)Cc2cccs2)c1 | -19.2
COCCn1c(COc2ccc(OC)cc2)nc2ccccc21 | 1.33
C[C@]12CCC3C(CCC4=C/C(=N/OCC(=O)NC(CCC(=O)O)C(=O)O)CC[C@@]43C)C1CCC2O (some centres unmarked) | 10.5
O=C(COC(=O)CNS(=O)(=O)/C=C/c1ccccc1)Nc1cccc2ccccc12 | 13.9
CC(=O)NS(=O)(=O)c1ccc(NC(=S)NC(=O)Cc2ccccc2)cc1 | 8.83
CCCCN(CCCC)CCCNC(=O)C12CN(Cc3ccccc3)CC1C(c1cccc([N+](=O)[O-])c1)=NO2 (centres unmarked) | -53.1
N#C/C(=C/Nc1ccccc1)c1ccsc1 | 11
O=C(CN1CCc2ccccc2C1)Nc1ccccc1C(F)(F)F.O=C(O)C(=O)O | 9.96
O=C(Nc1cc(=O)[nH]c2ncnn12)c1ccccc1Cl | 5.08
CCOc1ccccc1N(C(=O)c1ccco1)C(C(=O)NC1CCCC1)c1cccnc1 (centres unmarked) | 13
CC(C)C(=O)Nc1nnc(S(=O)(=O)N2c3ccccc3CC2C)s1 (centres unmarked) | 14.7
CNC(=O)Nc1cccc(NC(=O)NC)n1 | 0.557
Cc1cc(NC(=O)CC#N)n(-c2ccccc2)n1 | 7.17
Cc1ccccc1-c1nn(-c2ccccc2)cc1C(=O)NCC(c1ccco1)N1CCCC1 (centres unmarked) | 14.2
COc1ccccc1NC(=O)CN1CCN(CC(=O)Nc2ccc(OCc3ccccc3)cc2)CC1 | -2.39
CCOc1cc(CNC(C)C)c(Cl)cc1OCC(=O)NCCc1ccccc1 | 0.929
